Read counts are not given, so values of variants with three or more changes are uncertain.

B1: OR4K15 (parent)
chain: GUUAACGGUCAUAGGCCAUGGAAACUAGGAGCACCAUUUCGCUGCCAGUGAAGAAAUGAACAAAGAAAAUCUGGGCCAGGCAGGCAUCAAAAGAAAUAGUCUUGCGCUCAACCAGAAAGUCUGUAAUCAUUUUAAGGGUA

The variants in this data set derive from B1. Briefly: self-cleavage, relative activity (ratio to wild type); higher = more cleavage; in vitro, sequencing; the parent is a self-cleaving ribozyme.
Take GUUAACGGUCGUAGGCCAUGGAAACUAGGAGCACCAUUUCGCUGCCAGUGAAGAUAUGAACAAAGAAAAUCUGGGCCAGGCAGGCAUCAAAAGAAACAGUCUUGCGCUCAACCAGAAAGUCUGUAAUCAUUUUAAGGGUA: the self-cleavage was found to be 1.16.
Under GUUAACGGUCGUAGGCCAUGGAAACUAGGAGCACCAUUUCGCUGCCAGUGAAGAAGUGAACAAAGGAGAUCUGGGCCAGGCAGGCAUCAAAAGAAAUAGUCUUGCGCUCGACCAGAAAGUCUGUAAUCAUUUUAAGGGUA stands 0.08.
Next, GUUAACGGUCGUAGGCCAUGGAAACUAGGAGCACCAUUUCGCUGCCAGUGAAGAAUUGAACAAAGAAAAUCUGGGCCAGGCUGGCAUCAAAAGAAAUAGUCUUGCGCUCAACCAGAAAGUCUGUAAUCAUUUUAAGGGUA: 0.07; GUUAACGGUCGUAGGCCAUGGAAACUAGGAGCACCAUUUCGCUGCCAGUGAGGAAGUGGGCGAAGAAAAUCUGGGCCAGGCGGGCAUCAAAAGAAAUAGUCUUGCGCUCAACCAGAAAGUCUGUAAUCAUUUUAAGGGUA: 0.38; GUUAACGGUCGUAGGCCAUGGAAACUAGGAGCACCAUUUCGCUGCCAGUGAAGAAGUGAACAAAGAAAAUCUGGGCCAGGCAGGCAUCAAAAGAAAUAGUCUUGCGCUCAACCAGAAAGUCUGUAAUCUUUUUAAGGGUG: 0.85.
Next, GUUAACGGUCGUAGGCCAUGGAAACUAGGAGCACCAUUUCGCUGCCAGUGAAGAAAUGAACAGAGAAAGUCUGGGCCAGGCAGGCAUCAAAAGAAAUAUUCUUGCGCUCAACCAGAAAGUCUGUAAUCAUUUUAAGGGUA: 0.36.
Consider GUUAACGGUCGUAGGCCAUGGAAACUAGGAGCACCAUUUCGCUGCCAGUGGAGAAAUGAACAAAGAAAAUCUGGGCCAGGCAGGCAUCAAAAGAAAUAGCCUUGCGCUCAACCAGAAAGUCUGUAAUCAUUUUAAGGGUA, for which the self-cleavage was found to be 1.25.
Next, GUUAACGGUCGUAGGCCAUGGAAACUAGGAGCACCAUUUCGCUGCCAGUGAAGAAAUGAACGAAGAAAAUCUGGGCCAGGCAGGCAUCAAAAGAAAUAGUCUUGCGCUCAACCAGAAAGUCUGAAAUCAUCUUAAGGGUA: 0.12.
Next, GUUAACGGUCGUAGGCCAUGGAAACUAGGAGCACCAUUUCGCUGCCAGUGAAGAAAUGAACAAGGAGAAUCUGGGCCAGGCAGACAUCAAGAGAAAUAGUCUUGCGCUCAACCAGAAAGUCUGUAAUCAUUUUAAGGGUA: 1.54; GUUAACGGUCGUAGGCCAUGGAAACUAGGAGCACCAUUUCGCUGCCAGUGAAGAGAUGAACAAAGAAAAUCUGGGCCAGGCGGGCACCAAAAGAAAUAGUCUUGCGCUCAACCAGAAAGUCUGUAAUCAUUCUAAGGGUA: 0.05.
Under GUUAACGGUCGUAGGCCAUGGAAACUAGGAGCACCAUUUCGCUGCCAGUGAGGAAAUGAACAGAGAAAAUCUGGGCCAGGCAGGCAUCAAUAGAAAUAGUCUUGCGCUCAACCAGAAAGUCUGUAAUCAUUUUAAGGGUA stands 0.8; under GUUAACGGUCGUAGGCCAUGGAAACUAGGAGCACCAUUUCGCUGCCAGUGAAGAAGUGAACAAGGAAAAUCUGGGCCAGGCAGGCAUCAAAAGAAAUAGUCUUGCGCUCUACCAGAAAGUCUGUAAUCAUUUUAAGGGUA, 1.09; under GUUAACGGUCGUAGGCCAUGGAAACUAGGAGCACCAUUUCGCUGCCAGUGAAGAGAUGAACAAAGAAAAUCUGGGCCAGGCAGGCAUCAAAAGAAAUAGUAUUGCGCUCAACCAGAAAGUCUGUAAUCAUCUUAAGGGUA, 0.08.
GUUAACGGUCGUAGGCCAUGGAAACUAGGAGCACCAUUUCGCUGCCAGUGAGGAAAUGAACAAAGAAAAUCUGGGCCAGGCAGGCAUCAAAAGAAAUAGUCUUGCGCUCAACCAGAAAGUCAGUAAUCAUUUUAAGGGUA: the self-cleavage was 0.37.
Under GUUAACGGUCGUAGGCCAUGGAAACUAGGAGCACCAUUUCGCUGCCAGUGAAGAGAUGAACAAAGAAAAUCUGGGCCAGGCAGGCAUCAAAAGAAAUAGUCUUGCGCUCAACCAGAAAGUCCGUAAUCAUUUUAAGGGUA stands 0.54.
Under GUUAACGGUCGUAGGCCAUGGAAACUAGGAGCACCAUUUCGCUGCCAGUGAAGUAAUGAACAAAGAAAAUCUGGGCCAGGCAGGCAUCAAAAGGAAUAGUCUUGCGCUCAACCAGAAGGUCUGUAAUCAUUUUAAGGGUA stands 1.07.
Next, GUUAACGGUCGUAGGCCAUGGAAACUAGGAGCACCAUUUCGCUGCCAGUGAUGAAAUGAACAAAGAAAAUCUGGGUCAGGCAGGCAUCAAAAGAAAUAGUCUUGCGCUCAACCAGAAAGUCCGUAAUCAUUUUAAGGGUA: 0.21; GUUAACGGUCGUAGGCCAUGGAAACUAGGAGCACCAUUUCGCUGCCAGUGAAGAAAUGAACAGAGAAAAUCUGGGCCAGGCAAGCAUCAAAAGAAAUAGUCUUGCGCUCAACCAGAAAGUCUGUAAUCAUUUUAAGGGUA: 0.88.
With GUUAACGGUCGUAGGCCAUGGAAACUAGGAGCACCAUUUCGCUGCCAGUGAGGAAAUGUACAAAGAAAAUCUGGGCCUGGCAGGCAUCAAAAGAAAUAGUCUUGCGCUCAACCAGUAAGUCUGUAAUCAUUUUAAGGGUA, the self-cleavage was determined as 0.14.
Next, GUUAACGGUCGUAGGCCAUGGAAACUAGGAGCACCAUUUCGCUGCCAGUGAUGAAAUGAACAAAGAAAAUCUGGGCCGGGCAGGCAUCAAAAGAAAUAGUCUUGCGCUCAACCAGAAAGUCUGUAAUCAUUUUAAGGGUA: 0.33.

For the origin of these results see the RNAGym collection of RNA variant scans (doi:10.7554/elife.90254).
